# Results from PubChem BioAssay AID588591 (National Center for Advancing Translational Sciences (NCATS), 2011).
# The campaign covered roughly 390,000 compounds. About 4,700 (1.2%) were called active. Inconclusive means that the source gave no clear call. Such entries were picked first, then a sample of the others. Calls follow the shape of the dose curve; as a rule, active = well fitted inhibition curve with a large enough effect; inconclusive = small, poorly fitted or top-dose-only effect, or another doubt; inactive = no such curve, though single readings can be large or run the other way. Potencies beside an inconclusive call are fits to weak or partial responses and may not hold up.
# Biological target: DNA polymerase eta (Homo sapiens) (UniProt Q9Y253)
# Sequence of UniProt Q9Y253 (Q9Y253 whole entry, looked up): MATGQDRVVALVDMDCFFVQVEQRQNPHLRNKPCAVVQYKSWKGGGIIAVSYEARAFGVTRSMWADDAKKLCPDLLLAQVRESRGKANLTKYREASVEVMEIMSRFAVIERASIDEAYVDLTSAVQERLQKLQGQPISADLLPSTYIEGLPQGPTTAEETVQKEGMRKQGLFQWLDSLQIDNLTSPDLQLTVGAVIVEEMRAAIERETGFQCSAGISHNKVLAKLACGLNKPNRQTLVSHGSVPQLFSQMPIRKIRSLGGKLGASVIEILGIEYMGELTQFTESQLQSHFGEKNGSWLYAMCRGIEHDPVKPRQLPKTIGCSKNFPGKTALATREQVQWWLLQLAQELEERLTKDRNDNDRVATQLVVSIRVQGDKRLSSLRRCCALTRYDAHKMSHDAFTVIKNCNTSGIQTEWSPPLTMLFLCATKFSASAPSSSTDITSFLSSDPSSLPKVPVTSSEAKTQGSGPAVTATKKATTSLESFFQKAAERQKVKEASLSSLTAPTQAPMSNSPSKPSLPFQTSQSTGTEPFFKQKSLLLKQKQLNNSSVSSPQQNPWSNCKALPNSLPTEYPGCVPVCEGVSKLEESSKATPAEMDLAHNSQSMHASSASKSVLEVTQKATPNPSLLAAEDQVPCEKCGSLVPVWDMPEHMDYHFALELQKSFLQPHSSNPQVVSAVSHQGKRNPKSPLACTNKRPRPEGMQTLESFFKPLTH
# Test: qHTS for Inhibitors of Polymerase Eta
# Conditions: recombinant Pol eta, fluorescent DNA replication assay; series mostly up to 114 µM; activity change, negative = inhibition: at the top concentration
# In short: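 Pol eta at 10 nM preincubated with compounds 15 min at room temperature; reaction started with fluorescent substrate (50 nM final) and read kinetically at 0 and 10 min.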
# % is scaled to controls: 0 for no effect and ±100 for the full control effect; potency is read from the fitted curve at half-maximal effect; tags tell the direction and shape of the fitted curve.
SMILES,Potency,"activity change, negative = inhibition"
CCOC(=O)C1=C(C)NC(C)=C(C(=O)OCC)C1c1sccc1C,"inconclusive: 11.2 µM [inhibitor, partial curve, poor fit]",
CCn1c(SCC(=O)OC)nc2sc3c(c2c1=O)CCC3,"inconclusive: 56.2 µM [inhibitor, partial curve, poor fit]",
COc1ccccc1NC(=O)c1c(NC(=O)c2cccs2)sc2c1CCC(C(C)(C)C)C2 (stereo not given),,inactive: -7.09%
CC(NC(=O)c1ccco1)C1COc2ccccc2O1 (stereo not given),"inconclusive: 15.8 µM [inhibitor, full curve, poor fit]",
O=C(c1cc(O)c(O)c([N+](=O)[O-])c1)c1ccccc1F,"inconclusive: 39.8 µM [inhibitor, partial curve]",
COc1ccc(/C=N/Nc2nc(C(=O)O)cs2)cc1,active: 31.6 µM,
COc1ccc(-c2ccc(/C=C3/C(=N)N4C=CSC4=NC3=O)o2)c([N+](=O)[O-])c1,active: 20 µM,
COC(=O)c1cc(COc2ccc3ccc(=O)oc3c2)c(C)o1,,inactive: 10.5%
COc1cc(NC(=S)NC(=O)c2ccccc2F)ccc1NC(=O)c1ccco1,"inconclusive: 28.2 µM [inhibitor, single point]",
COCCNC(=O)CCCn1c(=O)c2ccccc2n(Cc2cccc([N+](=O)[O-])c2)c1=O,"inconclusive: 100 µM [inhibitor, partial curve, poor fit]",
O=C(Cc1cccs1)Nc1cccc([N+](=O)[O-])c1,"inconclusive: 56.2 µM [inhibitor, partial curve]",
C=CCS/C(N)=N\N=C\c1c(O)ccc2ccccc12,"inconclusive: 79.4 µM [inhibitor, partial curve, poor fit]",
COc1cccc(NC(=O)Nc2cc(-c3cn4cccnc4n3)ccc2OC)c1,"inconclusive: 50.1 µM [inhibitor, partial curve, poor fit]",
CC(C)(C)c1ccc(-n2nc(C#N)c(Cl)cc2=O)cc1,"inconclusive: 15.8 µM [inhibitor, full curve]",
Clc1ccc(/C=N/NC(=Nc2ccccc2)c2ccccn2)c(Cl)c1,"inconclusive: 89.1 µM [inhibitor, partial curve, poor fit]",
CCCCCC(=O)NNC(=O)c1ccc(-c2ccccc2)cc1,,inactive: -3.76%
COc1cccc(-n2c(SCc3cc(=O)oc4cc(O)c(O)cc34)nc3ccccc3c2=O)c1,active: 3.16 µM,
CCCSc1nc2c(c(=O)[nH]1)C(c1ccc(O)c(OCC)c1)CC(=O)N2 (stereo not given),,inactive: -25.7%
CCc1ccccc1NC(=O)C1CCCN1S(=O)(=O)c1ccc(-c2ccc(=O)[nH]n2)s1 (stereo not given),active: 39.8 µM,
O=C(COc1cccc2cccnc12)Nc1cccc(S(=O)(=O)N2CCCC2)c1,"inconclusive: 44.7 µM [inhibitor, partial curve, poor fit]",
CCOc1ccc(CSCCNC(=S)Nc2ccccc2)cc1,,inactive: -16.8%
N#C/C(=C\c1ccc([N+](=O)[O-])o1)C(=O)Nc1ccc(F)cc1,active: 22.4 µM,
O=C(OCC1OC(n2ncc(=O)[nH]c2=O)C(OC(=O)c2ccccc2)C1OC(=O)c1ccccc1)c1ccccc1 (stereo not given),active: 89.1 µM,

SMILES,Potency,"activity change, negative = inhibition"
CC1=NN(c2ccc(C(=O)OC(C)C)cc2)C(=O)/C1=C\C=C\c1ccco1,"inconclusive: 25.1 µM [inhibitor, partial curve, poor fit]",
COc1cc(C(CC(=O)N2CCCC2)c2c(OC)cc(OC)c3ccc(=O)oc23)cc(OC)c1OC (stereo not given),active: 31.6 µM,
O=C(COC(=O)C12CC3CC(CC(C3)C1)C2)NCc1ccco1,"inconclusive: 31.6 µM [inhibitor, partial curve, poor fit]",
COc1ccc(N(C(=O)CNC(=O)c2ccco2)C(C(=O)NCC2CCCO2)c2ccccc2)cc1 (stereo not given),,inactive: -10%
CCN(CC)c1ccc(C(=O)N/N=C(\C)c2ccc(OC)c(OC)c2)cc1,"inconclusive: 35.5 µM [inhibitor, partial curve, poor fit]",
CC1C=CC=CC=CC=CC=CC=CC=CC(OC2OC(C)C(O)C(N)C2O)CC2OC(O)(CC(O)CC(O)C(O)CCC(O)CC(O)CC(=O)OC(C)C(C)C1O)CC(O)C2C(=O)O (stereo not given),active: 0.891 µM,
COc1ccc(C(=O)COC(=O)c2nn(C)c(=O)c3ccccc23)c(OC)c1,"inconclusive: 15.8 µM [inhibitor, full curve, poor fit]",
O=[N+]([O-])c1ccc(CN2CCCCCC2)s1,"inconclusive: 20 µM [inhibitor, partial curve, poor fit]",
CCOc1ccc(S(=O)(=O)N(C)CC(=O)N2CCCC2)cc1,,inactive: -0.902%
COc1ccccc1NC(=O)c1c(C)nc2ccccc2c1C(=O)O,,inactive: -5.88%
CCNc1oc(-c2cccc3ccccc23)nc1C#N,"inconclusive: 28.2 µM [inhibitor, partial curve, poor fit]",
COc1ccc(NS(=O)(=O)c2csc(C(=O)N3CCCC3)c2)cc1,"inconclusive: 89.1 µM [inhibitor, partial curve]",
C/C=C/C=C/C(=O)[C@@H]1[C@@H]([C@]2(C)OC(=O)C(C)=C2O)[C@H]2/C(=C(O)/C=C/C=C/C)C(=O)[C@]1(C)C(=O)C2(C)O (stereo not given in full),active: 2.51 µM,
CCCN(CCC)CCNC(=O)Cn1cnc2sc(C)c(S(=O)(=O)N3CCN(c4ccccc4OC)CC3)c2c1=O,,inactive: -12.2%
CC(C)Oc1ccc(CNC(=O)c2cnc3sc(N4CCCCCC4)nn3c2=O)cc1,,inactive: -5%
CC(NC(=O)COC(=O)c1ccc(Cl)cc1O)c1ccc(F)cc1 (stereo not given),,inactive: -13.8%
O=[N+]([O-])c1cc(S(=O)(=O)Oc2ccccc2)ccc1Cl,"inconclusive: 28.2 µM [inhibitor, partial curve, poor fit]",
COc1ccc(CC(=O)OC(C)C(=O)c2ccc(C)cc2)cc1 (stereo not given),,inactive: -14.9%
Cc1ccc(-n2ncc3c(SCC(N)=O)ncnc32)cc1C,,inactive: -11.1%
CC(C)CCn1c(=O)c2sccc2n2c(CCCC(=O)Nc3ccc(F)c(Cl)c3)nnc12,,inactive: -10.4%
c1coc(-c2nnc(-c3ccco3)nn2)c1,active: 8.91 µM,
CCOC(=O)Nc1ccc2c(CN3C(=O)NC4(CCCC4)C3=O)cc(=O)oc2c1,"inconclusive: 25.1 µM [inhibitor, partial curve]",
